Experimental data taken from the GPR68 mutational scans of Howard et al. (2025).

B1: GPR68, Q15743 (parent)
chain: MGNITADNSSMSCTIDHTIHQTLAPVVYVTVLVVGFPANCLSLYFGYLQIKARNELGVYLCNLTVADLFYICSLPFWLQYVLQHDNWSHGDLSCQVCGILLYENIYISVGFLCCISVDRYLAVAHPFRFHQFRTLKAAVGVSVVIWAKELLTSIYFLMHEEVIEDENQHRVCFEHYPIQAWQRAINYYRFLVGFLFPICLLLASYQGILRAVRRSHGTQKSRKDQIQRLVLSTVVIFLACFLPYHVLLLVRSVWEASCDFAKGVFNAYHFSLLLTSFNCVADPVLYCFVSETTHRDLARLRGACLAFLTCSRTGRAREAYPLGAPEASGKSGAQGEEPELLTKLHPAFQTPNSPGSGGFPTGRLA

Columns and labels:
[1] = variants of: B1; assay: cAMP reporter score (Enrich2 score, wild type = 0); higher = more signal; HEK293T, FACS bins
[2] = variants of: B1; assay: surface expression score (Enrich2 score, wild type = 0); higher = more signal; HEK293T, FACS bins

Variant	cAMP reporter score ([1]; pH 5.5)	cAMP reporter score ([1]; pH 6)	cAMP reporter score ([1]; pH 6, modulator: ogerin)	cAMP reporter score ([1]; pH 6.5, modulator: ogerin)	surface expression score [2]
A24del	-0.962	-0.446	-0.368	-0.861	-2.27
P25A	1.24	-0.23	0.865	0.807	4.05
P25C	-1.44	-0.699	-1.32	-0.692	0.558
P25D	-1.82	-0.638	-1.84	-0.76	-1.83
P25E	-0.687	-0.699	-1.11	-0.57	-0.555
P25F	-0.724	-0.2	-1.06	-0.81	1.64
P25G	-0.598	-0.587	-0.997	-1.06	1.37
P25H	-1.34	-0.84	-1.27	-1.28	-0.336
P25I	0.254	-0.379	-0.276	-0.463	1.99
P25K	-0.636	-0.859	-0.674	-0.48	1.76
P25L	-1.21	-0.734	-1.46	-1.32	0.629
P25M	-0.043	-0.214	-0.423	-0.439	2.33
P25N	-1.02	-0.22	-1.17	-0.819	0.906
P25Q	-0.263	0.137	-0.896	-1.22	1.37
P25R	-1.06	-0.606	-1.34	-1.02	1.23
P25S	0.276	-0.675	-0.165	-0.692	1.63
P25T	-0.023	-0.503	-0.449	-0.955	1.66
P25V	-0.054	-0.27	-0.736	-0.296	1.94
P25W	-0.171	0.194	-0.657	-0.828	1.58
P25Y	-1.01	-0.525	-0.908	-0.462	1.26
P25_V26insG	-1.48	-1.37	-1.36	-1.06	-2.21

Variant	cAMP reporter score ([1]; pH 5.5)	cAMP reporter score ([1]; pH 6)	cAMP reporter score ([1]; pH 6, modulator: ogerin)	cAMP reporter score ([1]; pH 6.5, modulator: ogerin)	surface expression score [2]
P25_V26insGS	-2.12	-0.405	-1.48	-1.1	-1.91
V26A	-0.475	-0.116	0.105	-0.051	-0.098
V26C	-0.234	0.607	-0.564	0.402	
V26D	-1.09	-0.615	-1.54	-1.83	-2.75
V26E	-0.413	0.176	-1.02	-0.428	
V26F	0.319	0.086	0.587	0.4	0.69
V26G	-0.542	-1.29	-1.1	-1.3	
V26I	0.91	0.257	0.768	0.547	1.49
V26L	1.3	1.91	1.53	1.98	2.23
V26M	-0.368	-0.092	-0.183	-0.153	-0.277
V26N	-1.41	-0.288	-1.86	-0.516	-2.27
V26P	-0.231	-0.683	-0.602	-1.73	-2.56
V26Q	-1.44	-1.49	-1.58	-1.97	-2.35
V26T	0.737	0.643	0.597	-0.019	
V26W	0.549	1.41	1.04	1.42	2.26
V26Y	0.06	-0.899	-0.782	-0.765	0.059
V26_V27del	-1.45	-1.72	-1.83	-1.12	-2.22
V26_V27insGS	-0.741	-1.25	-0.981	-0.947	-2.09
V26del	-1.84	-0.894	-1.81	-1.38	-1.56
V27A	-1.73	-0.862		-1.45	-1.6
V27C	-0.832	-0.316		-2.12	-2.77

Variant	cAMP reporter score ([1]; pH 5.5)	cAMP reporter score ([1]; pH 6)	cAMP reporter score ([1]; pH 6, modulator: ogerin)	cAMP reporter score ([1]; pH 6.5, modulator: ogerin)	surface expression score [2]
V27D	-1.19	-0.434	-1.47	-0.94	-1.18
V27E	-1.07		-1.49	-0.905	-2.77
V27F	-0.677	-0.411		-1.46	-0.122
V27G	-1.77	-0.659	-1.36	-0.862	-2.22
V27H	-1.26	-0.811	-0.893	-0.856	-2.57
V27I	0.434	0.966	0.43	0.93	0.94
V27K	-1.79	-0.516	-1.96	-1.35	-2.24
V27L	-0.288	-0.285	-0.058	-0.164	-1.12
V27M	-0.963	-0.764	-1.25	-0.63	-1.61
V27N	-1.1	0.252	-0.798		-2.59
V27P	-1.36	-0.485	-1.59	-1.05	-1.99
V27Q	-1.44	-1.35	-2.14	-0.356	-2.33
V27R	-1.55	-0.837	-1.9	-1.48	-2.27
V27S	-1.2	-1.07	-1.99	-1.35	
V27W	0.046	0.084	-0.605	-0.64	-0.658
V27Y	-2.32	-0.625	-1.49	-0.601	-2.57
V27_Y28insG	-1.37			-0.894	-2.62
V27_Y28insGS	-1.36	-1.38	-1.89	-1.3	-2.43
Y28A	-0.844	-0.575	-1.69	-0.522	0.37
Y28C	-1.61	-0.723	-1.72	-1.23	-1.85

Scores with a large standard error are left out. Not listed are two conditions whose scores span a narrow range. In variant names, del marks residues removed and ins residues inserted between the two positions. For some of these results: The data file names ogerin without a concentration.
